PubChem BioAssay AID1347073 (National Center for Advancing Translational Sciences (NCATS), 2019)
In all, about 45,000 compounds went through this assay and about 200 (0.44%) were called active. About 7% were inconclusive and are not listed. The call rests on the fitted dose curve; in most records, active means well fitted activation curve with a large enough effect; inconclusive means small, poorly fitted or top-dose-only effect; inactive means no such curve, though single readings can be large or run the other way. Some of the results follow.

Experiment: qHTS of TDP-43 Inhibitors: NCGC Sytravon Library Screen; further: 0% is about no effect; nearly all actives have a fitted effect of over 55% in size
Settings: yeast TDP-43 toxicity rescue, BacTiter-Glo growth, 24 h; series mostly up to 46.1 µM; growth rescue (activation): at the top concentration
In short: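 TDP-43-expressing yeast, pregrown in raffinose, seeded at OD600 0.02 in galactose medium with compound for 24 hr at 30 deg C. Growth read by BacTiter-Glo luminescence, so rescue of toxicity appears as activation.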

Compound	growth rescue (activation)
CC(=O)c1ccc(OCc2cc(C(=O)N(C)Cc3ccon3)no2)cc1	inactive: 5.83%
NC(=O)c1ccccc1N(Cc1ccccc1)S(=O)(=O)c1ccccc1	inactive: -6.98%
CN(C(=S)Nc1ccc(Oc2ccccc2)cc1)c1ccc(O)cc1	inactive: 11.7%
Cc1ccc(OCC(=O)Nc2ccc(S(=O)(=O)Nc3ccccn3)cc2)c(C)c1	inactive: -3.73%
CCNc1c([N+](=O)[O-])c(=O)oc2ccccc12	inactive: 4.26%
C=CCN(CC=C)CCCOc1ccccc1C(=O)OC	inactive: -20%
N#C/C(=C\c1ccc(F)cc1)c1n[nH]c(Cn2cncn2)n1	inactive: 5.74%
O=c1[nH]c(C2CCN(S(=O)(=O)Cc3ccccc3)CC2)nc2c1nnn2Cc1cccc(Cl)c1	inactive: 6.59%
CC(C)NC(=O)c1ccc(Cl)cc1Cl	inactive: 14.1%
Cc1cc(N2CCN(C)CC2)nc2ccc(NC(=O)c3ccccc3F)cc12	inactive: 14.2%
CCOC(=O)N(C)c1c(CC)nc2c(OCc3ccc(OC(F)F)cc3)cccn12	inactive: 11.8%
CCN(CC)c1ccc(C2Nc3cccc4cccc(c34)N2)cc1	inactive: 3.72%
CC(=NC(C)C)C1=C(O)C(C)OC1=O (stereo not drawn)	inactive: -1.08%
CC(C)(C)CC(=O)Nc1nc(C(N)Cc2ccc(C(F)(F)F)cc2)cs1 (stereo not drawn)	inactive: -8.3%
O=C(CN1CCN(S(=O)(=O)c2ccc(Br)cc2)CC1)N/N=C/c1ccncc1	inactive: 25.7%
O=S(=O)(NCc1csc(-c2ccccc2)n1)c1ccccc1	inactive: 28.6%
CC(C)(C)c1nnc(NC(=O)NS(=O)(=O)c2ccccc2)s1	inactive: -23.9%
CCN(Cc1ccccc1)C(=O)COC(=O)c1n[nH]c2ccccc12	inactive: 14.6%
Cc1ccc(N2CC(C(=O)Nc3ccc4c(c3)OCO4)CC2=O)cc1C (stereo not drawn)	inactive: -10.6%
COc1ccccc1OCC(=O)NC1CCCc2ccccc21 (stereo not drawn)	inactive: -2.64%
Cc1ccc(NC(=O)CCN2C(=O)C3C4CCC(C4)C3C2=O)cc1[N+](=O)[O-] (stereo not drawn)	inactive: 7.87%
COc1ccc(S(=O)(=O)N2CCCCC2)cc1NS(=O)(=O)c1ccc(CNC(C)=O)cc1	inactive: 28.6%

Compound	growth rescue (activation)
O=C(NC(=S)NCCN1CCOCC1)c1ccc(Cl)cc1	inactive: 2.72%
Cc1nnc(SCC(=O)Nc2sc3c(c2C#N)CCCCC3)n1N	inactive: 8.98%
C=CCn1c(-c2ccncc2)n[nH]c1=S	inactive: 8.1%
COc1cccc(CNc2nc3cc(-c4cnn(Cc5ccccc5)c4)sc3c(=O)n2C)c1	inactive: 19.4%
CCOC(=O)c1c(C)n(C)c2cc(-c3ccc(C)cc3)c(O)cc12	inactive: 1.57%
O=C(NCCCc1ccccc1)c1cccc([N+](=O)[O-])c1	inactive: 25.2%
CCOc1ccc(N(CC(=O)NCc2ccccc2)C(=O)Cn2nnc(-c3ccc(C)o3)n2)cc1	inactive: 16.9%
CNC(=O)CS(=O)CC(=O)Nc1cc(OCCOC)c(Cl)cc1Cl (stereo not drawn)	inactive: 2.77%
COc1cc(SC)ccc1C(=O)OCC(=O)N1CCCC1	inactive: 9.8%
CC(C)c1ccc(CNc2nc(NCC3CC3)nc3ccsc23)cc1	inactive: 10.6%
CCN(CC)S(=O)(=O)c1ccc(N2CCOCC2)c(NS(=O)(=O)c2cc(C(C)(C)C)ccc2C)c1	inactive: -11.3%
Cn1c(N)c(C(=O)COC(=O)/C=C/c2ccccc2F)c(=O)n(C)c1=O	inactive: 4.25%
CCCCNC(=S)Nc1ccc2nc(N3CCN(CC)CC3)cc(C)c2c1	inactive: 7.66%
COc1ccccc1NS(=O)(=O)c1cc([N+](=O)[O-])ccc1N/N=C/c1sc(N2CCOCC2)nc1-c1ccccc1	inactive: -2.12%
CCOc1cccc(C(=O)NC(=S)Nc2ccccc2)c1	inactive: 24.7%
COc1ccc(NC(=O)CSCc2ccc(C)cc2)cc1	inactive: 26.5%
COc1ccc(-c2c[n+]3c(n2-c2ccccc2)SCC3)cc1	inactive: 2.65%
COc1ccc(CCN(C)C2CCCN(S(=O)(=O)N(C)C)C2)cc1OC (stereo not drawn)	inactive: 3.85%
COC(=O)c1ccccc1Sc1c(/C=N/OC(=O)c2ccccc2)c(C(F)(F)F)nn1C	inactive: 24.2%
CCNC(=O)CNC(=O)c1nn(Cc2ccccc2)c(=O)c2ccccc12	inactive: 5.94%
CCCC1=C(C(=O)OCC)C(c2ccccc2OC)NC(=O)N1 (stereo not drawn)	inactive: -2.4%
CC1CN(C(=O)/C=C/c2ccc(SC(F)F)cc2)CC(C)O1 (stereo not drawn)	inactive: -5.95%

Compound	growth rescue (activation)
O=C1CCCN1CC(=O)N1CCCC(N2CCN(c3cccc(Cl)c3)CC2)C1 (stereo not drawn)	inactive: -13.9%
CCCCC(=O)NC(Nc1sc2c(c1C(N)=O)CCCC2)(C(=O)OCC)C(F)(F)F (stereo not drawn)	inactive: 2.16%
S=C(Nc1ccc(Nc2ccccc2)cc1)NC1CCCCCC1	inactive: 7.83%
CC1=C(C(=O)OCc2ccccc2)C(c2ccc(N3CCOCC3)cc2)NC(=O)N1 (stereo not drawn)	inactive: 17.4%
COc1cc(N)c(Cl)cc1C(=O)OCC(=O)N1c2ccccc2NC(=O)C1(C)C	inactive: 8.36%
O=C(c1nn2c(C(F)(F)F)cc(-c3cccs3)nc2c1Br)N1CCCc2ccccc21	inactive: 7.71%
COC(=O)c1ccc(C2NC(=O)c3ccccc3O2)cc1 (stereo not drawn)	inactive: 26.2%
COc1cc(/C=C/C(=O)O)cc(Br)c1O	inactive: 28.7%
CN(c1ccc(OCC(=O)N2CCOCC2)cc1)S(=O)(=O)c1ccc(Cl)cc1	inactive: 9.27%
Cc1cc(Oc2nc3c(C)cccn3c(=O)c2/C=C(\C#N)S(=O)(=O)c2ccc(Cl)cc2)ccc1Cl	inactive: -18.9%
CCOC(=O)c1ccc(NC(=S)N2CCN(c3ccc(N4CCOCC4)nn3)CC2)cc1	inactive: 3.88%
O=S(=O)(Nc1cccc2ccccc12)c1ccccc1	inactive: 16.3%
Cc1cc(NC(=O)COC(=O)c2c(C)c(C)c(C)c(C)c2C)no1	inactive: 40.7%
O=C(OCc1ccc(Br)cc1F)c1cc2ccccc2oc1=O	inactive: -12.9%
CC(C)CCC(C)NC(=O)C1CCN(S(=O)(=O)/C=C/c2ccccc2)CC1 (stereo not drawn)	inactive: 0.599%
COC(=O)C1=CN(c2ccc(F)cc2)C=C(C(=O)OC)C1c1ccc([N+](=O)[O-])cc1	inactive: 7.09%
N#CCO/N=C/C(=O)Nc1ccc(F)cc1F	inactive: 2.63%
C/C(=N\Nc1ccc([N+](=O)[O-])cc1)c1ccc(N2CCOCC2)cc1	inactive: -4.43%
CCNC(=S)N/N=C/c1ccc(C#N)cc1	inactive: -21.7%
CCC(C)c1c(O)nc(SCC(=O)N2CCCCCC2)[nH]c1=O (stereo not drawn)	inactive: 9.08%
CCOC(=O)C1CCN(c2ccc(Cl)nn2)CC1	inactive: 8.08%
CCC(=O)Nc1cccc(NC(=O)c2ccccc2Cl)c1	inactive: -0.74%

Compound	growth rescue (activation)
Cc1nn(-c2ccccc2)c(N2CCCC2)c1/C=N/NC(=O)c1cc(-c2ccccc2)nc2ccccc12	inactive: -0.208%
O=C(NC(=S)Nc1ccc(NC(=O)c2cccs2)cc1)c1ccco1	inactive: 12.3%
COc1ccc(S(=O)(=O)Nc2c(C)cccc2C)cc1-n1cnnn1	inactive: 10.8%
Cc1ccc(N2CCN(C(=O)C3CCN(S(=O)(=O)c4cccc5nsnc45)CC3)CC2C)cc1 (stereo not drawn)	inactive: 8.07%
COC(=O)c1sccc1S(=O)(=O)NC(C)c1cnn(-c2ccc(OC)cc2)c1C (stereo not drawn)	inactive: 1.37%
COc1cccc(C(=O)NNC(=O)c2cccnc2)c1	inactive: -5.44%
COc1ccc(-n2nc(C(=O)NCC(=O)N3CCCCCC3)c3ccccc3c2=O)cc1OC	inactive: 23%
O=C(Nc1ccc(Cl)cc1)Nc1nnc(CSc2ccc(Cl)cc2)s1	inactive: 5.07%
COc1ccccc1NC(=S)NCc1cccnc1	inactive: 0.269%
CCN(CC)CCCN1C(=O)C2C(C(=O)Nc3ccc(C(C)C)cc3)C3C=CC2(O3)C1C(=O)NC1CCCCC1 (stereo not drawn)	inactive: 6.16%
Cc1nc(CNS(=O)(=O)c2ccc(Br)cc2)cs1	inactive: 9.44%
O=S(=O)(c1ccc(NC(=S)NC2CC2)cc1)N1CCOCC1	inactive: 0.98%
O=C(CCCCl)NC(=S)Nc1ccc(N2CCOCC2)cc1	inactive: 6.96%
CCc1nn2c(=O)c(S(=O)(=O)Nc3ccccc3)c(C)nc2s1	inactive: 4.09%
CNc1nc(-c2ccc3c(c2)CCN3C(=O)c2ccccc2C)cs1	inactive: 24.8%
COc1ccc(CC(=O)NCC(=O)N/N=C(/C)c2ccco2)cc1	inactive: -0.354%
Brc1ccc(OCCOc2cccc3cccnc23)cc1	inactive: 25.8%
CCC(c1nnc(SCC(=O)Nc2ccc(C(C)=O)cc2)n1C1CCCCC1)N(C)C (stereo not drawn)	inactive: 6.72%
O=[N+]([O-])c1ccccc1C1Nc2cccc3cccc(c23)N1	inactive: 29.9%
COCCNC(=S)N/N=C/c1ccc(N2CCOCC2)cc1	inactive: 9.47%
COCCn1c(C)cc(C2=NNC(=NC(C)(C)C)SC2)c1C	inactive: -6.97%
CC(C)N(Cc1cc2ccccc2[nH]c1=O)C(=O)C1CCCCC1	inactive: 6.47%

Compound	growth rescue (activation)
O=C(CNC(=O)C1COc2ccccc2O1)N/N=C/c1cc(Br)c(O)c(Br)c1 (stereo not drawn)	inactive: -2.21%
CCOC(=O)c1c(NC(=O)C2(C)Cc3ccccc3C(=O)O2)sc2c1CCCC2 (stereo not drawn)	inactive: -6.99%
Cc1ccc(C(=O)Nc2cccc(C(=O)N/N=C/c3ccc(O)cc3)c2)cc1	inactive: -7.01%
C/C(=N\NC(=O)CSc1nnc(C)s1)c1ccc(Cl)cc1	inactive: 18.3%
CCc1ccc(CN(Cc2ccco2)C(=O)c2cc(-c3ccc(C)c(F)c3)on2)cc1	inactive: 7.91%
COc1ccc(NC(=O)C2(C)Cc3c(-c4ccc(N(C)C)cc4)ccnc3O2)cc1OC (stereo not drawn)	inactive: -8.2%
O=C(NCc1cccs1)C1CCCN1C(=O)Nc1cccc(F)c1 (stereo not drawn)	inactive: 4.41%
O=[N+]([O-])c1ccc(N2CCCCC2)cc1NCCOc1ccccc1	inactive: -8.69%
CCOC(=O)N1CCN(Cc2nc(-c3cccc(Cl)c3)no2)CC1	inactive: 19.1%
Cc1ccc(NC(=O)c2cc(-c3ccccc3)nn2-c2ccccc2)c(Br)c1	inactive: 2.87%
Cc1ccc(NC(=O)CCNC(=O)Cn2ccc3ccccc3c2=O)cc1F	inactive: -11.8%
COc1ccc(OC)c(S(=O)(=O)N2CCC(C(=O)NCc3cccnc3)CC2)c1	inactive: 9.19%
O=C(NCc1cccs1)c1cc(S(=O)(=O)N2CCOCC2)ccc1N1CCCC1	inactive: 8.16%
COc1ccc(N=Cc2oc3ccc4ccccc4c3c2O)cc1	inactive: 6.7%
CCc1nc(Cl)c(C#N)c2c1CCCC2	inactive: 16.6%
CCC(=O)N1CCCC(C)(C(=O)Nc2nccc3ccccc23)C1 (stereo not drawn)	inactive: 7.14%
O=C(Cc1c(F)cccc1Cl)Nc1ccccc1-c1ccccc1	inactive: -12.1%
COc1ccccc1OCc1ccc(C(=O)OCC2CCCO2)o1 (stereo not drawn)	inactive: 6.19%
Cc1c2cnn(-c3ccccc3)c(=O)c2c(C)n1CCCC(=O)NCCN1CCN(C)CC1	inactive: -6.72%
CC(=O)Nc1ccc(Nc2ncc([N+](=O)[O-])c(Nc3ccc(NC(C)=O)cc3)n2)cc1	inactive: 13.5%
